# Measurements as given in ChEMBL document CHEMBL4888484, “Replenishing the malaria drug discovery pipeline: Screening and hit evaluation of the MMV Hit Generation Library 1 (HGL1) against asexual blood stage Plasmodium falciparum ,using a nano luciferase reporter read-out” (2022).
# About 540 (0.36%) of roughly 150,000 compounds showed an effect of 50% or more. Some of the results follow.
# Test system: Plasmodium falciparum
# Test: Primary screen in NF54 nanoGlo assay, in single point, at 2uM, 72h; a lower Z score goes with more inhibition
# Format: functional, Erythrocyte
# Settings: timepoint 72 hour
Compound,% Inhibition [%],Z score
COC(=O)c1cccc(NCc2nc3cccnc3s2)c1,-2,0.18
CNC(=O)[C@@H]1CCCN1c1ccc2nnc(C(F)(F)F)n2n1,-10,1.71
Cc1ccsc1-c1nc(-c2ccc(S(=O)(=O)N3CCC(C)CC3)cc2)no1,-5,0.82
CC(C)C[C@@H](NC(=O)Nc1cccc(F)c1)C(=O)OC(C)(C)C,0,-0.02
CCC1CCCCN1C(=O)CC1(c2ccccc2OC)CC(=O)N(CCCOC)C1=O (stereo not drawn),16,-2.14
CCc1nc(COc2ccc(C(=O)N3CCC[C@H](C(=O)O)C3)cc2)no1,-10,1.34
C[C@H](NC(=O)c1[nH]cnc1C(=O)c1ccccc1)c1nccs1,0,-0.05
CCCc1oncc1C(=O)N1CCCN(CC2CC2)[C@H](C(C)C)C1,23,-3.16
CCN(CC)C(=O)c1ccc(N)c(C)c1,-11,2
CC(C)c1nc(CC(=O)NC(C)C2CCCO2)cs1 (stereo not drawn),-4,0.59
Cn1cc(CCN2CCCC[C@H]2C(=O)OC(C)(C)C)cn1,-10,1.99
COCCNCCOc1cccc(Br)c1,-11,1.54
Cc1nccc(NC2CCCCCC2CO)n1 (stereo not drawn),1,-0.14
Cc1cccc(C(=O)N2CCC[C@H]2C(=O)Nc2cc(Cl)ccc2Cl)n1,-3,0.32
Cc1nn(C)c(-n2cccn2)c1C(=O)NCC(C)(C)O,-3,0.55
C/C=C(\C)CN1C[C@H](NC(=O)CN2CCCCC2=O)[C@@H](C2CC2)C1,-5,1.02
Cc1nccc(-c2ccccc2)c1C(=O)N1CCC[C@H](c2nc(CC(C)C)no2)C1,-16,2.43
CN(CC[C@H]1CCCCO1)C(=O)c1cc(Cl)c[nH]1,5,-0.51
CCOC(=O)CN(CC)C(=O)c1cnn(C)c1,-6,0.75
CC1(C)C[C@@H]1C(=O)N1CCCN(C(=O)C(F)(F)F)CC1,2,-0.24
O=C(C1CCC1)N(CCN1CCCC1)[C@H]1CCCN(C2CCCC2)C1,-2,0.32
NS(=O)(=O)c1ccc(CNc2cc(C3CC3)ncn2)cc1,-8,1.17
CCCN1C(=O)COc2cc(-c3noc(C(=O)NCCc4ccccc4)n3)ccc21,-7,0.86
CS(=O)(=O)N(CCCN1CCOCC1)[C@H]1CCN(C(=O)NCCc2ccccc2)C1,-6,0.65
